From PubChem BioAssay (NCI)
Several values for one entry are separate records, joined by “and”; a condition that tells them apart may be missing. Identical values can stand only once.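 Each compound was tested at five concentrations against cells in 96-well plates for 48 hours. Abbreviation: GI50, concentration required for 50% inhibition of growth. TGI: total growth inhibition.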

Each molecule was assayed on NCI-H322M lung (assay: NCI-60 cell line screen, 48 h).
With `COc1ccc2c(C)cc(=O)oc2c1OC` the TGI was greater than 100 µM. `COc1cccc(-c2nc(-c3ccc(NC(=O)C(C)C)cc3)[nH]c2-c2ccnc(Br)c2)c1` gave a GI50 of 2.72 µM and a TGI greater than 100 µM. With `CN1CCN(CCCn2c(=O)c3sc4ncccc4c3n3nnc(-c4ccccc4)c23)CC1` the GI50 was 6.16 µM and the TGI was 12.9 µM. With `COc1cc(/C=C/c2cc(O)c(C(C)=O)c(O)c2)cc2c1O[C@]1(C)CC[C@@H](O)C(C)(C)[C@H]1C2` the GI50 was 9.23 µM and the TGI was 75 µM. Work on `Cc1cc(I)cc(CN(C)CCCN2CCCCC2)c1O` yielded a GI50 of 41.9 µM and a TGI greater than 100 µM. `Clc1ccc(C(c2ccc(Cl)cc2)c2ccccn2)cc1` gave a TGI of 48.5 µM. Work on `NC1=NCC(CN2CCOCC2)O1` (stereo not given) yielded a TGI greater than 100 µM. Work on `CN(C)c1nc(=Nc2ccc(N=c3nc(N(C)C)ss3)cc2)ss1` yielded a TGI greater than 100 µM. Work on `Cc1c2c(nn1-c1ccc(S(=O)(=O)/N=C3\SCCC(=O)N3c3ccccc3)cc1)-c1ccccc1CC2` yielded a GI50 of 23.5 µM and a TGI greater than 100 µM. `CC1=NS(=O)(=O)c2ccccc2N1` was tested, and the TGI was greater than 100 µM. Molecule `COc1ccc([C@H]2[C@@H](F)C(=O)N2c2cc(OC)c(OC)c(OC)c2)cc1F` has a GI50 of 1.63 µM and a TGI greater than 100 µM. For `NC1(C(=O)OCc2ccccc2)CCCC1`, the TGI was greater than 100 µM. With `CN(C)CCSC1=Nc2ccc(Cl)cc2C(c2ccccc2Cl)=NC1` the GI50 was 17.4 µM and > 100 µM and the TGI was 37.4 µM and > 100 µM. `CCOC(=O)C(=C=C=C(c1ccccc1)c1ccccc1)C(=O)OCC` showed a TGI of 90.7 µM. `C/C(=N\NC(=S)NC(CCC(=O)O)C(=O)O)c1ccccn1` (stereo not given) showed a TGI greater than 100 µM. `CCCCCCCC(=O)SCC/C=C/[C@@H]1CC(=O)NCc2cc(ccn2)C2=N[C@@](C)(CS2)C(=O)N[C@@H](C(C)C)C(=O)O1` gave a GI50 of 0.0478 µM. `CC[C@H](Nc1ncnc2nc[nH]c12)c1oc2ccccc2c(=O)c1-c1cccc(F)c1` was tested, and the GI50 was 28.2 µM and the TGI was greater than 100 µM. Work on `O=C(/C=C/c1ccc2c(c1)OCO2)CC(=O)C(=O)c1c[nH]c2ccccc12` yielded a TGI greater than 100 µM. Work on `CC(C)(C)OC(=O)N[C@H]1CC2(C=C(Cl)C(=O)C(Cl)=C2)OC1=O` yielded a TGI greater than 66.4 µM. `COc1c(Cl)c(=O)oc2ccc(Cl)cc12` gave a TGI greater than 100 µM. Work on `CCCCC(C(=O)NCCNC(=O)CCC(=O)N(C)O)C(=O)NCCNC(=O)CCC(=O)N(C)O` yielded a TGI greater than 100 µM. Work on `CC1(C)C2CCC1(C)[C@H](n1c(=O)n([C@@H]3CC4CCC3(C)C4(C)C)c(=O)n([C@@H]3CC4CCC3(C)C4(C)C)c1=O)C2` yielded a TGI greater than 100 µM. Molecule `CC(=O)Nc1nc(C#N)[nH]c1C#N` has a TGI greater than 100 µM. `O=C(O)c1ccccc1CC1Cc2ccccc2C1=O` (stereo not given) was tested, and the TGI was greater than 100 µM. With `OCCCCCNCc1cc2cc3c(cc2c2cc(OCc4ccccc4)ccc12)OCO3` the GI50 was 1.76 µM and the TGI was 3.22 µM. `C=C1NC(=O)C(C(C)CC)NC(=O)C2CSCC(NC(=O)CCC(=O)O)C(=O)NC(Cc3ccccc3)C(=O)NC(C)C(=O)NC(CC(C)CC)C(=O)NC(C(=O)NC(Cc3ccccc3)C(=O)N3CCCC3C(=O)N2)C(C)OC(=O)C(CO)NC(=O)C(C(O)COC)N(C)C(=O)C(C(C)C)NC(=O)C(CC(C)CC)NC1=O` (stereo not given) showed a GI50 of 0.0346 µM and a TGI greater than 6 µM. For `Cn1c2ccccc2c2cc(-c3ccccc3)c3c(c21)C(=O)c1ccccc1C3=O`, the TGI was 52.4 µM. For `CN(C)c1ccc(S(=O)Nc2ccccc2)cc1` (stereo not given), the TGI was greater than 100 µM. `CCNC(=O)Cc1nc2c(N)ncnc2n1C1OC(CO)C(O)C1O` (stereo not given) showed a TGI greater than 100 µM. For `CS(=O)c1ncc2c(n1)-c1ccccc1OC2` (stereo not given), the TGI was greater than 100 µM. Work on `Cc1cc(C(=O)CCCCOc2ccc(C3=NCCO3)cc2)c(C)n1C` yielded a TGI greater than 100 µM. `COC1=CC(=O)C(C2CC(=O)c3c(O)cc(O)cc3O2)=CC1=O` (stereo not given) showed a TGI greater than 93.2 µM. With `CN(C)c1ccc(C(=N/N=C2\C(=O)Nc3ccccc32)c2ccc(N(C)C)cc2)cc1` the TGI was greater than 52.3 µM. `O=C(/C=C/c1ccc(Cl)cc1)c1ccc(Nc2ccnc3cc(Cl)ccc23)cc1` showed a GI50 greater than 100 µM and a TGI greater than 100 µM. For `N#Cc1c(-c2ccccc2)/c(=C\Nc2ccc(F)cc2)c(=O)n2c1nc1ccccc12`, the TGI was 88.5 µM. Work on `COc1cccc2c(=O)oc(-c3ccc(C(C)(C)C)cc3)nc12` yielded a TGI greater than 100 µM. Work on `CSC(=S)N/N=C(\C)c1ccc(S(=O)(=O)N(C)c2ccccc2)cc1` yielded a TGI greater than 100 µM. `Cc1cc(N(CCOS(C)(=O)=O)CCOS(C)(=O)=O)ccc1C=O` was tested, and the TGI was 9.1 µM. Work on `O=S(=O)(CCn1c(Sc2ccccc2)c(Sc2ccccc2)c2ccccc21)c1ccccc1` yielded a TGI greater than 100 µM. With `CO[C@H]1/C=C(/C)CCC[C@H](C)[C@H](O)[C@@H](C)C(=O)C(C)(C)[C@@H](O)CC(=O)O[C@@H]1/C(C)=C/c1csc(C)n1` the GI50 was 0.028 µM and the TGI was greater than 100 µM. With `CCOC(=O)c1ccc(NCC#CCN2CCOCC2)cc1` the TGI was greater than 100 µM. With `CC1OC(OC2C(OC(=O)[C@]34CCC(C)(C)C[C@H]3C3=CC[C@@H]5[C@@]6(C)CC[C@H](OC7OC(C(=O)O)C(O)C(O)C7O)C(C)(C)[C@@H]6CC[C@@]5(C)[C@]3(C)C[C@H]4O)OCC(O)C2O)C(O)C(OC2OCC(O)(CO)C2O)C1OC1OCC(O)C(O)C1O` (stereo not given in full) the TGI was 10.7 µM. For `CC(=N/N=C/c1ccccn1)/C(C)=N/N=C(C)/C(C)=N/N=C(C)/C(C)=N/N=C(C)/C(C)=N\N=C\c1ccccn1`, the TGI was greater than 100 µM. Work on `OC(c1nc2ccccc2[nH]1)C(O)C(O)C(O)c1nc2ccccc2[nH]1` (stereo not given) yielded a TGI greater than 100 µM. For `CC1(C)CCCC2OC2CCC(C)(C)C1=O` (stereo not given), the TGI was greater than 100 µM. Molecule `O=C1NCCN1/N=C/c1c(Cl)n(-c2ccccc2)c2ccccc12` has a TGI of 64.8 µM. In the case of `CCCCCCN(CCCCCC)C(=O)Cc1c2n(c3ccccc13)Cc1ccccc1-2`, the TGI is reported as greater than 100 µM. Molecule `NS(=O)(=O)c1cc(Br)c(N=Nc2ccc(O)c3ncccc23)c(Br)c1` has a TGI greater than 100 µM.
